# “And” between values parts separate entries of the source, which are not always exact repeats. Identical values can stand only once. The full ranking holds about 5,300 compounds; the median of “PER2::LUC luminescence relative to vehicle control” is about 0.96, and the highest 2% start at about 1.3. Some of the results follow.
# Test system: mPer2Luc MEF
# Experiment: PER2::LUC luminescence relative to vehicle control (fold of vehicle); higher = higher PER2::LUC reporter signal
# Details: 10 µM
# Summary of the method: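 The reported values are PER2::LUC luminescence as fold of vehicle control in mouse embryonic fibroblasts carrying the mPer2Luc reporter. Cells were seeded at ~3000 per well in 384-well plates in DMEM with 10% FBS at 37 °C and 5% CO2, and compounds were added at 10 μM 48 h later. ONE-Glo luminescence was read 24 h and 30 h after treatment.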
SMILES,PER2::LUC luminescence (time after treatment 24 h),PER2::LUC luminescence (time after treatment 30 h)
Clc1ccccc1C(c1ccccc1)(c1ccccc1)n1cccn1,1.12,1.04
O=C(O[C@H]1C[N+]2(CCCOc3ccccc3)CCC1CC2)C(O)(c1cccs1)c1cccs1,1.04,1.01
CC(=O)O[C@H]1[C@H]2O[C@]23[C@@H]2CC[C@@H]4C[C@@H](O)CC[C@]4(C)[C@H]2CC[C@]3(C)[C@H]1c1ccc(=O)oc1,0.932,0.916
O=C(N[C@H]1CN2CCC1CC2)c1cc2cccc(Cl)c2s1,0.706,0.682
NCCc1c[nH]c2ccccc12,1.05 and 1.06,1.01 and 0.941
C[C@]12CC[C@H](O)C[C@H]1CC[C@@H]1[C@@H]2C[C@@H](O)[C@]2(C)[C@@H](C3=CC(=O)OC3)CC[C@]12O,0.984,1.09
Clc1ccc(N2C[C@H]3CC[C@@H](C2)N3)nn1,0.869,0.799
CCc1c(C(=O)OC)ncc2[nH]c3cc(OC)c(OC)cc3c12,0.922,0.848
N[C@H](C(=O)O)c1cc(O)no1,0.953,1.02
c1cc2c(cc1[C@H]1OC[C@H]3[C@@H]1CO[C@H]3c1ccc3c(c1)OCO3)OCO2,1.15,1.17
CC(=O)OCC1=C[C@H]2[C@@H]3C(C)(C)[C@]3(OC(=O)Cc3ccccc3)C[C@@H](C)[C@]2(O)[C@@H]2C=C(C)C(=O)[C@@]2(O)C1,1.21,1.09
C#CCN(C)[C@H](C)Cc1ccccc1,0.941 and 0.895,0.893 and 0.934
COc1ccc2c3c([nH]c2c1)[C@H](CC(C)C)N1C(=O)[C@H](CCC(=O)OC(C)(C)C)NC(=O)[C@@H]1C3,0.871,0.868
CN1CCN(c2nc3ccccc3nc2Cl)CC1,1.01,1.01
CCNC1=Nc2ccc(Cl)cc2C(C)(c2ccccc2)O1 (centres undefined),1.07 and 0.939,0.917 and 1.01
C[C@@H]1O[C@@H](O[C@@H]2C=C3CC[C@@H]4[C@H](CC[C@]5(C)[C@@H](c6ccc(=O)oc6)CC[C@]45O)[C@@]3(C)CC2)[C@H](O)[C@H](O)[C@H]1O,0.969,0.909
CN(C)C(=O)Oc1ccc[n+](C)c1,0.856 and 0.593,0.965 and 1.06
NCCc1ccccc1,1.03,1.04
CC[C@H]1CN2CC[C@H]1C[C@H]2[C@H](O)c1ccnc2ccc(OC)cc12,0.777,0.861
COc1ccc(/C=C/c2cc(O)cc(O)c2)cc1,1.69,1.76
C=CCN1CC[C@]23CCCC[C@H]2[C@H]1Cc1ccc(O)cc13,0.896,0.84
CC(=O)Nc1cc([As](=O)(O)O)ccc1O,1.04 and 1.02,1.06 and 0.878
C/C=C(\C)C(=O)O[C@H]1C[C@@H](OC(C)=O)[C@@]2(C(=O)OC)CO[C@H]3[C@@H](O)[C@@](C)([C@]45O[C@@]4(C)[C@H]4C[C@@H]5O[C@@H]5OC=C[C@@]54O)[C@H]4[C@]1(CO[C@]4(O)C(=O)OC)[C@@H]32,0.966,0.924
Cc1cc2c(C(C)C)c(O)c(O)c(C=O)c2c(O)c1-c1c(C)cc2c(C(C)C)c(O)c(O)c(C=O)c2c1O,0.631,0.7
O=C(O)/C=C/CO,1.02,0.97
CCCN1CC[C@@H]2c3cc(O)ccc3CC[C@@H]21 (racemic),0.904,1.04

SMILES,PER2::LUC luminescence (time after treatment 24 h),PER2::LUC luminescence (time after treatment 30 h)
O=c1[nH]c2ccccc2n1C1CCN(CCCC(c2ccc(F)cc2)c2ccc(F)cc2)CC1,0.715,0.71
COc1cc2c(cc1F)C(c1ccccc1Cl)=Nc1c(n[nH]c1C)N2,0.461,0.367
O=C(O[C@H]1CN2CCC1CC2)N(Cc1cc(F)c(F)c(F)c1)c1cccc(F)c1,0.705,0.788
CC(=O)[O][Hg][c]1ccccc1,0.604,0.585
CC(C)C[C@H](NC(=O)[C@H](Cc1ccccc1)NC(=O)CNC(=O)[C@H](NC(=O)[C@@H](N)Cc1ccc(O)cc1)[C@H](C)O)C(=O)N[C@@H](C(=O)O)[C@@H](C)O,0.94,0.916
CC(=O)NCCc1c[nH]c2ccccc12,0.923,0.996
C[C@@H]1[C@H](O)[C@@H](C)/C=C/C=C/CC/C=C/C=C/C=C/C=C/[C@H](O[C@H]2O[C@@H](C)[C@H](O)[C@@H](N)[C@H]2O)C[C@@H]2O[C@](O)(C[C@@H](O)[C@H](O)CC[C@@H](O)C[C@@H](O)C[C@@H](O)CC(=O)O[C@H]1C)C[C@H](O)[C@H]2C(=O)O,1.08,0.928
Nc1ccc(CCN2CCN(c3cccc(C(F)(F)F)c3)CC2)cc1,0.898,0.788
COc1cccc2c1cc([N+](=O)[O-])c1c(C(=O)O)cc3c(c12)OCO3,1.32 and 1.11,0.955 and 1.05
COP(=S)(OC)Oc1cc(Cl)c(Cl)cc1Cl,1.12,0.813
NCCc1c[nH]c2ccc(C(N)=O)cc12,1.02,0.977
COc1cc2occc2c2oc(=O)ccc12,0.853,0.853
CCCCCCCCC(=O)NCc1ccc(O)c(OC)c1,0.977,0.997
CC(C)c1ccc2c(c1O)CC[C@H]1C3=C(CC[C@]21C)C(=O)OC3,0.736,0.86
Nc1ccc([As](=O)(O)O)cc1,0.989 and 0.943,1.04 and 0.896
CC1(C)[C@@H](O)C[C@H]2[C@](C)(O)[C@@H]3CC[C@@H]4[C@@H](O)[C@@]3(C[C@@H](O)[C@@]21O)C[C@@]4(C)O,1.04,0.912
NCCCNCCSP(=O)(O)O,0.972,0.961
CN1CCN(c2ccc3ccccc3n2)CC1,1.14,1.23
Clc1ccc(N2CCN(Cc3c[nH]c4ncccc34)CC2)cc1,0.956 and 0.908,0.954 and 0.925
CCn1cnc2c(Nc3cccc(Cl)c3)nc(N[C@@H]3CCCC[C@@H]3N)nc21,0.587,0.595
c1ccc2c(c1)[nH]c1cnccc12,1.06 and 0.932,1.06 and 0.931
O=C(CCCN1CCC2(CC1)C(=O)N(Cc1cccc(F)c1)CN2c1ccccc1)c1ccc(F)cc1,0.93,0.783
CCN(CC)C(=O)c1ccc(C2=CC3(CCNCC3)Oc3cccc(O)c32)cc1,0.963 and 0.998,1.04 and 0.959
O=S1(=O)N(CCN2CC=C(c3c[nH]c4cc(F)ccc34)CC2)c2cccc3c2N1CCC3,1.05,1.06
N#CC(C#N)=Cc1ccc([N+](=O)[O-])c(O)c1,1.17,0.925
O=[N+]([O-])OCC(CO[N+](=O)[O-])O[N+](=O)[O-],0.829,0.825

# — the supplement of paper PMC9334596
